Inconclusive means that the source gave no clear call. Such entries were picked first, then a sample of the others. For part of these data: Where the call is inconclusive, the potency comes from a doubtful curve fit. Activity calls are given as the source filed them. Calls follow the shape of the dose curve; as a rule, active = well fitted curve in the direction sought with a large enough effect; inconclusive = small, poorly fitted or top-dose-only effect, or another doubt; inactive = no such curve, though single readings can be large; an effect the other way counts as inactive or inconclusive.
Tested on: not listed separately
Test: P-glycoprotein substrates identified in KB-8-5-11 adenocarcinoma cell line, qHTS therapeutic library screen (AID 1346987); also: nearly all actives have a fitted effect of over 65% in size; also: potency is read from the fitted curve at half-maximal effect
Details: KB-8-5-11 (P-gp overexpressing) viability, CellTiter-Glo, 72 h; series mostly up to 44.5 µM
In short: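 Steps: plate 500 KB-8-5-11 cells/well in DMEM + 10% FCS (colchicine removed); pin compounds in dose-response; incubate 72 h, 37 degree C, 5% CO2; add CellTiter-Glo, 5 min; read luminescence.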
Tags tell the direction and shape of the fitted curve.

| Compound | Potency |
| --- | --- |
| CC(C)OC(=O)N1CCC(Oc2ncnc3c2cnn3-c2ccc(S(C)(=O)=O)cc2F)CC1 | inconclusive: 16.4 µM [inhibitor, single point] |
| COc1cc(C2OCC3(O)C(c4ccc(O[C@@H]5O[C@H](CO)[C@@H](O)[C@H](O)[C@H]5O)c(OC)c4)OCC23O)ccc1O (stereo partly specified) | inactive |
| O=C([C@@H](Cc1cccc(C(F)(F)F)c1)NS(=O)(=O)c1cc(F)c2c(c1)CCNC2)N1CCCC1 | inactive |
| CC(C)S(=O)(=O)c1ccc2nccc(Nc3ccc4scnc4c3)c2c1 | inconclusive: 29.1 µM [inhibitor, single point] |
| Cc1ccnc(NC(=O)C(C)c2cccc(C(=O)c3ccccc3)c2)c1 (stereo unspecified) | inconclusive: 20.6 µM [inhibitor, partial curve, poor fit] |
| O=C1COC2(CCN(S(=O)(=O)c3ccc(-c4ccc5cccnc5c4)cc3)CC2)CN1C1CC1 | inconclusive: 20.6 µM [inhibitor, partial curve, poor fit] |
| CC(=O)O[C@]1(C(C)=O)CC[C@H]2[C@@H]3C=C(C)C4=CC(=O)CC[C@]4(C)[C@H]3CC[C@@]21C | inconclusive: 6.23 µM [inhibitor, partial curve, poor fit] |
| CCNC1(C(N)=O)CN(c2nc(C)nc3c(-c4ccc(Cl)cc4)c(-c4ccccc4Cl)nn23)C1 | inconclusive: 29.1 µM [inhibitor, single point] |
| C=C[C@H]1CN2CC[C@H]1C[C@@H]2[C@@H](O)c1ccnc2ccc(OC)cc12 | inactive |
| CC(C)(C)OC(=O)c1ncn2c1C(C)(C)Nc1ccccc1-2 | inconclusive: 16.4 µM [inhibitor, single point] |
| CC(=O)NC[C@H]1CN(c2ccc(N3CCSCC3)c(F)c2)C(=O)O1 | inconclusive: 18.4 µM [inhibitor, single point] |
| CC(C)Nc1nc(Nc2ccccc2)nc(-c2ccccc2)n1 | inconclusive: 20.6 µM [inhibitor, partial curve] |
| C[C@@H]1CC[C@]2(C(=O)O)CC[C@]3(C)C(=CCC4[C@]5(C)C(CC[C@]43C)C(C)(C)[C@@H](O)[C@H](O)[C@@H]5O)C2[C@]1(C)O (stereo partly specified) | inactive |

Tested on: not listed separately
Test: qHTS of pediatric cancer cell lines to identify multiple opportunities for drug repurposing: Primary screen for SK-N-MC cells (AID 1347093); also: potency is read from the fitted curve at half-maximal effect;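 as to activity change, negative = cytotoxic: plate controls were DMSO neutral control for no effect and bortezomib for full effect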
Details: SK-N-MC viability, CellTiter-Glo luminescence, 48 h; activity change, negative = cytotoxic: at 46 µM (top of the series)
In short: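 Metabolically active cells were quantified by ATP-dependent luminescence (CellTiter-Glo, 15 min at room temperature) following 48 h treatment. Cells had been plated at 500-1,000 per well and settled for 5 h beforehand.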

| Compound | Potency | activity change, negative = cytotoxic |
| --- | --- | --- |
| CC(=O)O[C@]1(C(C)=O)CC[C@H]2[C@@H]3C=C(C)C4=CC(=O)CC[C@]4(C)[C@H]3CC[C@@]21C | inactive | – |
| C=C[C@H]1CN2CC[C@H]1C[C@@H]2[C@@H](O)c1ccnc2ccc(OC)cc12 | inactive | – |
| C[C@@H](O)[C@H]1C(=O)N2C(C(=O)O)=C(S[C@@H]3CN[C@H](CNS(N)(=O)=O)C3)[C@H](C)[C@H]12 | inconclusive: 13.3 µM [cytotoxic, partial curve] | – |
| Cc1ccc(Cl)c(OCC(O)CNC(C)(C)C)c1 (stereo unspecified) | inactive | – |
| CC(=O)SC[C@@H](Cc1ccccc1)C(=O)NCC(=O)OCc1ccccc1 | – | inconclusive: -33.8% [cytotoxic] |

Tested on: not listed separately
Test: qHTS of pediatric cancer cell lines to identify multiple opportunities for drug repurposing: Primary screen for BT-37 cells (AID 1347094);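 also: plate controls were DMSO for no effect and bortezomib for full effect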
Details: BT-37 viability, CellTiter-Glo luminescence, 48 h; series mostly up to 57.3 µM
In short: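 Cells plated at 500-1,000/well in growth medium, compounds added after 5 h. MIPE tested at 11 points (from 0.78 nM), NPC at 8 points (from 0.59 nM). CellTiter-Glo luminescence after 48 h; concentration-response curves from primary screen.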

| Compound | Potency |
| --- | --- |
| C=C[C@H]1CN2CC[C@H]1C[C@@H]2[C@@H](O)c1ccnc2ccc(OC)cc12 | inactive |
| C[C@@H](O)[C@H]1C(=O)N2C(C(=O)O)=C(S[C@@H]3CN[C@H](CNS(N)(=O)=O)C3)[C@H](C)[C@H]12 | inactive |
| Cc1ccc(Cl)c(OCC(O)CNC(C)(C)C)c1 (stereo unspecified) | inactive |

Tested on: not listed separately
Test: qHTS of pediatric cancer cell lines to identify multiple opportunities for drug repurposing: Primary screen for OHS-50 cells (AID 1347103); also: nearly all actives have a fitted effect of over 40% in size; also: potency is read from the fitted curve at half-maximal effect;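 as to activity change, negative = cytotoxic: plate controls were DMSO neutral control for no effect and bortezomib positive control for full effect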
Details: OHS-50 osteosarcoma viability, CellTiter-Glo luminescence, 48 h; series mostly up to 57.3 µM
In short: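 Cells (500-1,000/well) rested 5 h, then received compounds for 48 h; metabolically active cells were measured by CellTiter-Glo luminescence. Final concentrations spanned up to 46 µM (MIPE, 11-point) or 0.59 nM-46 µM (NPC, 8-point) in primary screens, 11-point in follow-ups.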

| Compound | Potency |
| --- | --- |
| CC(=O)O[C@]1(C(C)=O)CC[C@H]2[C@@H]3C=C(C)C4=CC(=O)CC[C@]4(C)[C@H]3CC[C@@]21C | inconclusive: 11 µM [cytotoxic, partial curve] |
| C[C@@H](O)[C@H]1C(=O)N2C(C(=O)O)=C(S[C@@H]3CN[C@H](CNS(N)(=O)=O)C3)[C@H](C)[C@H]12 | inactive |
| Cc1ccc(Cl)c(OCC(O)CNC(C)(C)C)c1 (stereo unspecified) | inconclusive: 38.9 µM [cytotoxic, single point] |

Tested on: Zika virus NS2B-NS3 protease (unlinked complex)
Test: Primary screen GU Rhodamine qHTS for Zika virus inhibitors: Unlinked NS2B-NS3 protease assay (AID 1347159); also: nearly all actives have a fitted effect of over 60% in size; also: potency is read from the fitted curve at half-maximal effect
Details: Recombinant ZIKV NS2B-NS3 protease, Rhodamine110 substrate fluorescence; series mostly up to 107 µM
In short: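 Percent inhibition derives from the 15-min fluorescence change (ex 480, em 540 nm), normalized to no-enzyme and no-inhibitor wells. Reactions contained 25 nM NS2B-NS3 complex and 1.5 microM substrate in 10 mM Tris-HCl pH 8.0.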

| Compound | Potency |
| --- | --- |
| OC[C@H]1O[C@@H](OCc2ccccc2)[C@H](O)[C@@H](O)[C@@H]1O | inconclusive: 63.1 µM [inhibitor, partial curve, poor fit] |
| CC(C)(O)C1CC=C(C(=O)OC[C@H]2O[C@@H](Oc3cc(C(=O)O)cc(O)c3O)[C@H](O)[C@@H](O)[C@@H]2O)CC1 (stereo partly specified) | inconclusive: 22.4 µM [inhibitor, partial curve] |
| CCCn1cc2c(nc(NC(=O)Nc3ccc(OC)cc3)n3nc(-c4ccco4)nc23)n1 | inactive |
| Cn1c2ccc(NC(=O)c3ccccc3)cc2c(=O)n2nc(C(=O)O)cc12 | inconclusive: 31.6 µM [inhibitor, partial curve] |
| O=C1COC2(CCN(S(=O)(=O)c3ccc(-c4ccc5cccnc5c4)cc3)CC2)CN1C1CC1 | inconclusive: 100 µM [inhibitor, single point] |
| CO[C@H]1O[C@@H]2O[C@@]3(C)CCC4[C@H](C)CCC([C@H]1C)[C@]42OO3 (stereo partly specified) | inconclusive: 70.8 µM [inhibitor, partial curve, poor fit] |
| C=C1CC2C(C)(CCC(=O)O)C(C(C)(C)O)CCC2(C)C2(C(=O)OC)C(=O)C(C)(O)C(=O)C12C (stereo unspecified) | inactive |
| CCC(C)/C=C(C)/C=C/C1=CC2=C(Cl)C(=O)C(C)(OC(C)=O)C(=O)C2(O)C(OC)O1 (stereo unspecified) | active: 28.2 µM |
| CC(C)c1cc2c(c(O)c1O[C@@H]1O[C@H](CO)[C@@H](O)[C@H](O)[C@H]1O)CC1(O)CCC(O)C(C)(C)C1CC2 (stereo partly specified) | active: 20 µM |
| CC(C)Nc1nc(Nc2ccccc2)nc(-c2ccccc2)n1 | inconclusive: 79.4 µM [inhibitor, partial curve, poor fit] |
| O=[N+]([O-])c1cn2c(n1)OC[C@@H](OCc1ccc(-c3ccc(OC(F)(F)F)cc3)nc1)C2 | inactive |
| COc1cc(/C=C2\CC[C@H]3COC[C@@H](c4cc(F)c(F)c(F)c4)N3C2=O)ccc1-n1cnc(C)c1 | inconclusive: 100 µM [inhibitor, single point] |
